Experimental data as given in publication PMC7564666.
Residue numbers refer to the chain shown, from its start. These are yes or no findings as the source states them, for the method shown. Some binding calls cover weakened binding; strength is not graded here. Tags and fused reporters may be left off the sequences shown.

By UniProt entry, the sequences of proteins in these tests, tags left out.
UniProt Q9UKV8: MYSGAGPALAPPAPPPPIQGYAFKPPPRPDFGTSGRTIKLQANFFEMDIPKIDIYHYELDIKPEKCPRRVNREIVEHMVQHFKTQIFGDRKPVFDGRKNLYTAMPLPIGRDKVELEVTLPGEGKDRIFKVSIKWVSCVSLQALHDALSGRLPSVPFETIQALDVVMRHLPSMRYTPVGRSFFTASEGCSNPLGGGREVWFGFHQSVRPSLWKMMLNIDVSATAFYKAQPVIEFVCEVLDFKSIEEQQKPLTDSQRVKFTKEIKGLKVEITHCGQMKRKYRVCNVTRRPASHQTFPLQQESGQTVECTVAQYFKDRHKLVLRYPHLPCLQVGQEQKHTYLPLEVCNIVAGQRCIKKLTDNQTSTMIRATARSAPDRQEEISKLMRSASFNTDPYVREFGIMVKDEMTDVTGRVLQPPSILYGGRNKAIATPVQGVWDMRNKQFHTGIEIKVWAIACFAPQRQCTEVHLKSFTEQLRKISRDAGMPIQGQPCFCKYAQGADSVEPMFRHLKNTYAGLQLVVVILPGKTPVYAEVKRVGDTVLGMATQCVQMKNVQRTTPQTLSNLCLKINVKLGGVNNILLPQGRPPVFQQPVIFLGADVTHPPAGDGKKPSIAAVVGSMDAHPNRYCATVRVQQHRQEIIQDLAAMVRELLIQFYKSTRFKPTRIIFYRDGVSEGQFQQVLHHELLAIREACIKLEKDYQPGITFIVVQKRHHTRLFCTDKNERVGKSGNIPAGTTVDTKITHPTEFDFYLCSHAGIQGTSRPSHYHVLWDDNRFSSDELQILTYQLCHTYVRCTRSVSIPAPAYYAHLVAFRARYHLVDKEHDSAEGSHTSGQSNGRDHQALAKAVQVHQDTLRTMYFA

Key:
Test in all cases: pull-down; direct binding: 1.5 nmol GST-LASP1, its domains or its phospho-mutants on glutathione-agarose beads with 100–200 ng of purified recombinant Ago2, 2 h at 4 °C, washed with lysis buffer; Western blot; both purified
[1] = biological target: T1, GST-LASP1 SH3 domain (residues 200–261) (human) (UniProt Q14847)
T1 sequence: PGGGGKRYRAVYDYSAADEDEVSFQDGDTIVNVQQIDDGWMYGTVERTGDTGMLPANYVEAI

GST-LASP1 S146D (human) = biological target: T2, GST-LASP1 S146D (human) (UniProt Q14847)
T2 sequence: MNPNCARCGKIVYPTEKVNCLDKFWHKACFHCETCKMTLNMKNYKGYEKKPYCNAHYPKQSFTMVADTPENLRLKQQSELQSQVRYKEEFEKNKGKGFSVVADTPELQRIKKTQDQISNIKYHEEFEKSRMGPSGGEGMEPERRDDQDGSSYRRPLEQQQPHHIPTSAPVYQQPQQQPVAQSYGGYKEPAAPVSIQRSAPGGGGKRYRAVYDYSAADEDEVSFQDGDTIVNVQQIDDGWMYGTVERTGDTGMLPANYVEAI

[2] = biological target: T3, GST-LASP1 S146A/Y171F (human) (UniProt Q14847)
T3 sequence: T2 sequence with D146A, Y171F

GST-LASP1 Y171F (human) = biological target: T4, GST-LASP1 Y171F (human) (UniProt Q14847)
T4 sequence: T2 sequence with D146S, Y171F

[3] = biological target: T5, GST-LASP1 (full length LIM and SH3 Protein 1, residues 1–261) (human) (UniProt Q14847)
T5 sequence: T2 sequence with D146S

GST-LASP1 S146A (human) = biological target: T6, GST-LASP1 S146A (human) (UniProt Q14847)
T6 sequence: T2 sequence with D146A

[4] = biological target: T7, GST-LASP1 S146A/Y171D (human) (UniProt Q14847)
T7 sequence: T2 sequence with D146A, Y171D

[5] = biological target: T8, GST-LASP1 LIM domain (residues 1–60) (human) (UniProt Q14847)
T8 sequence: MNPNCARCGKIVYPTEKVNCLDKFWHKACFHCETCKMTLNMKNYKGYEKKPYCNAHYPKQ

Measured: binding

purified recombinant Ago2 (from UniProt Q9UKV8 1-859)
binds: all assays above
